# According to PubChem BioAssay AID1745853 (National Center for Advancing Translational Sciences (NCATS), 2022):
# This is one part of the list. Shown are side measurements of this screen, not its main read-out; they come without a call.
# Legend:
# Assay in all cases: Primary Screen for Target Class Profiling of Small Molecule Inhibitors of Methyltransferases
# [1] = molecular target: Glycine N-methyltransferase (Homo sapiens) (UniProt Q14749); details: purified enzyme, MTase-Glo SAH luminescence; measured here: GNMT inhibition; at 40 µM; stronger effect = lower value
# In short: (§1)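 Each enzyme was assayed with SAM and its substrate. SAH formation detected by MTase-Glo luminescence; single-point 40 uM screen[…].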
# [2] = molecular target: Guanidinoacetate N-methyltransferase (Homo sapiens) (UniProt Q14353); details: purified enzyme, MTase-Glo SAH luminescence; measured here: GAMT inhibition; at 40 µM; stronger effect = lower value
# In short: as §1
# [3] = molecular target: Histamine N-methyltransferase (Homo sapiens) (UniProt P50135); details: purified enzyme, MTase-Glo SAH luminescence; measured here: HNMT inhibition; at 40 µM; stronger effect = lower value
# In short: as §1
# [4] = molecular target: Nicotinamide N-methyltransferase (Homo sapiens) (UniProt P40261); details: purified enzyme, MTase-Glo SAH luminescence; measured here: NNMT inhibition; at 40 µM; stronger effect = lower value
# In short: as §1
# [5] = molecular target: Phenylethanolamine N-methyltransferase (Homo sapiens) (UniProt P11086); details: purified enzyme, MTase-Glo SAH luminescence; measured here: PNMT inhibition; at 40 µM; stronger effect = lower value
# In short: as §1
# % is scaled to controls: 0 for no effect and ±100 for the full control effect.
smiles,measurement,setting,value
CN1C(=O)c2cc(C(=O)NCCc3ccccc3)nn2CC1(C)C(=O)NCc1ccc(F)cc1 (stereo not given),"activity change, negative = inhibition",[1],5.37%
same,"activity change, negative = inhibition",[2],0%
same,"activity change, negative = inhibition",[3],2.82%
same,"activity change, negative = inhibition",[4],5.26%
same,"activity change, negative = inhibition",[5],1.3%
COc1ccc(Cl)cc1NS(=O)(=O)c1ccc2[nH]c3c(c2c1)CCCC3,"activity change, negative = inhibition",[1],2.16%
same,"activity change, negative = inhibition",[2],6.66%
same,"activity change, negative = inhibition",[3],-3.06%
same,"activity change, negative = inhibition",[4],-7.75%
same,"activity change, negative = inhibition",[5],1.64%
O=C(CC1CCCCC1)NCc1nnc2cc(-c3nc(C4CC4)no3)ccn12,"activity change, negative = inhibition",[1],-6.11%
same,"activity change, negative = inhibition",[2],-9.1%
same,"activity change, negative = inhibition",[3],-3.4%
same,"activity change, negative = inhibition",[4],-10.8%
same,"activity change, negative = inhibition",[5],-8.61%
CC1(C)CC[C@]2(C(=O)OC3OC(CO)C(O)C(O)C3O)CC[C@]3(C)C(=CCC4[C@@]5(C)C[C@@H](O)[C@H](OC6OC(C(=O)O)C(O)C(O)C6O)C(C)(C)C5CC[C@]43C)[C@@H]2C1 (stereo not given in full),"activity change, negative = inhibition",[1],-0.026%
same,"activity change, negative = inhibition",[2],-2.75%
same,"activity change, negative = inhibition",[3],4.26%
same,"activity change, negative = inhibition",[4],-14.1%
same,"activity change, negative = inhibition",[5],-0.657%
CCOC(=O)C1CCN(c2nc3c(S(=O)(=O)c4ccc(Br)cc4)nnn3c3ccccc23)CC1,"activity change, negative = inhibition",[1],-2.1%
same,"activity change, negative = inhibition",[2],3.79%
same,"activity change, negative = inhibition",[3],4.93%
same,"activity change, negative = inhibition",[4],1.07%
same,"activity change, negative = inhibition",[5],-3.53%
COc1cccc(S(=O)(=O)N2C[C@@H](C)[C@](O)(C3CCC3)C2)c1,"activity change, negative = inhibition",[1],-4.54%
same,"activity change, negative = inhibition",[2],1.18%
same,"activity change, negative = inhibition",[3],2.14%
same,"activity change, negative = inhibition",[4],0.261%
same,"activity change, negative = inhibition",[5],0.848%
CNCCC=C1c2ccccc2CCc2ccccc21,"activity change, negative = inhibition",[1],-3.13%
same,"activity change, negative = inhibition",[2],5.87%
same,"activity change, negative = inhibition",[3],-25.8%
same,"activity change, negative = inhibition",[4],-23.7%
same,"activity change, negative = inhibition",[5],5.91%
Cc1noc(C)c1S(=O)(=O)N1CCc2n[nH]c(=O)n2CC1,"activity change, negative = inhibition",[1],-6.41%
same,"activity change, negative = inhibition",[2],-3.06%
same,"activity change, negative = inhibition",[3],-3.02%
same,"activity change, negative = inhibition",[4],-1.36%
same,"activity change, negative = inhibition",[5],2.7%
CCOC(=O)c1cc2n(n1)CC(C)(C(=O)NCCC(C)C)N(c1ccccc1CC)C2=O (stereo not given),"activity change, negative = inhibition",[1],0.266%
same,"activity change, negative = inhibition",[2],5.07%
same,"activity change, negative = inhibition",[3],2.88%
same,"activity change, negative = inhibition",[4],0.503%
same,"activity change, negative = inhibition",[5],-1.68%
CC1(C(=O)NC2CCCCC2)Cn2c(cc3occc32)C(=O)N1CCc1ccc(Cl)cc1 (stereo not given),"activity change, negative = inhibition",[1],-4%
same,"activity change, negative = inhibition",[2],2.68%
same,"activity change, negative = inhibition",[3],5.01%
same,"activity change, negative = inhibition",[4],-3.66%
same,"activity change, negative = inhibition",[5],-1.69%
